The campaign covered roughly 45,000 compounds. About 65 (0.1%) were called active. Calls follow the shape of the dose curve; as a rule, active = well fitted activation curve with a large enough effect; inconclusive = small, poorly fitted or top-dose-only effect; inactive = no such curve, though single readings can be large or run the other way. The list shows a part of the results.
biological target: Galactocerebrosidase (Homo sapiens) (UniProt P54803); test: A Novel Cell-Based Assay to Identify Small Molecules for B -Galactocerebrosidase; details: 145M-Twi-hGALC-G270D cells (Twitcher mouse brain line with human GALC G270D), HMU-beta-Gal fluorescence, 48 h; series mostly up to 57.5 µM; activation: at the top concentration; also: 0% is about no effect; nearly all actives have a fitted effect of over 65% in size
Sequence of UniProt P54803 (P54803 whole entry, looked up): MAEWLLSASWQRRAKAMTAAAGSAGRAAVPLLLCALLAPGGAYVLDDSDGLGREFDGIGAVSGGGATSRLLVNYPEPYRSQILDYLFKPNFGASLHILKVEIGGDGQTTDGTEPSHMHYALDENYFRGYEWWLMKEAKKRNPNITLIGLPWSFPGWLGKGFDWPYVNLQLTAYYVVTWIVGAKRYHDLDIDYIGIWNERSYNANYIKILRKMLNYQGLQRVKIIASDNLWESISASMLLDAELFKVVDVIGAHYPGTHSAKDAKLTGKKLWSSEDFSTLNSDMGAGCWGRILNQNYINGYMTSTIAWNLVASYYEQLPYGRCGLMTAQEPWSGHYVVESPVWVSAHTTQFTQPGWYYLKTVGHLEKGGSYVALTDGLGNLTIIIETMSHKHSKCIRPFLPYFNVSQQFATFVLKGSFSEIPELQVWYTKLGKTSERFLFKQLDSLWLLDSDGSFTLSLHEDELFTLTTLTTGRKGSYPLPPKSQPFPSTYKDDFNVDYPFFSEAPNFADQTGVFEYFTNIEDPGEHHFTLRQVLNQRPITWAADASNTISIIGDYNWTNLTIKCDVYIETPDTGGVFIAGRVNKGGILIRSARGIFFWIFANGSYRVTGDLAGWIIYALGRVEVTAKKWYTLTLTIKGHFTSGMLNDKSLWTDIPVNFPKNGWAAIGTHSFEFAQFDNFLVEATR
Summary of the method: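 Fluorogenic HMU-b-Gal hydrolysis (0.1 mM final, pH 5.2 citrate-phosphate with 1 mg/mL sodium taurocholate; carbonate stop buffer) measures mutant GALC activity after compound treatment of live 145M-Twi Twitcher brain cells stably carrying human GALC-G270D, with wild-type GALC line alongside; activation sought.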

activation, inactive:
CCN1CCN(C(c2ccccc2Cl)c2c(O)cc(C)n(CCOC)c2=O)CC1 (stereo not drawn) -25.7%
Cc1ccc(/C=C(\C#N)C(=O)Nc2cccc(Br)c2)o1 -8.15%
CC1CCCN(CCCNC(=O)Cn2ncc3c([nH]c4ccccc43)c2=O)C1 (stereo not drawn) -9.48%
Nc1nn(-c2ccccc2)nc1C(=O)OCc1ccccc1 -6.71%
CCCCn1c(=O)nc2n(-c3ccc(Br)cc3)c3ccccc3cc-2c1=O 23.8%
CC1(C)CCC(C)(C)c2cc(NC(=O)c3ccc(C(=O)O)cc3)ccc21 -6.4%
CCc1ccc(C2=CC(c3c(F)cccc3Cl)n3c(nc4ccccc43)N2)cc1 (stereo not drawn) -5.5%
Cc1ccc(-n2c(SCC(=O)N3CCCc4ccccc43)nc3c([nH]c4ccccc43)c2=O)cc1 6.08%
CCc1ccccc1-n1nnc(-c2nsc(NC(=O)c3ccc(C)c(C)c3)n2)c1C -19%
CC(C)(C)C(=O)Nc1ccccc1C(=O)OCc1cc(=O)n2ccsc2n1 -5.3%
CCc1ccc(OCCn2c(C3CC(=O)N(Cc4ccc(F)cc4)C3)nc3ccccc32)cc1 (stereo not drawn) -26.6%
COCCCNC(=O)CSC1=Nc2ccccc2C2=NC(CCC(=O)NCc3ccc(OC)cc3)C(=O)N12 (stereo not drawn) -19.2%
CCOC(=O)c1c(C)[nH]c(C)c1S(=O)(=O)N(C)CC(=O)Nc1ccc(C)cc1Br -16%
COc1cccc(C(=O)Nc2nc(-c3ccc(Br)cc3)ns2)c1 0.393%
CCOC(=O)Cc1ccc(NC(=O)N(Cc2ccc(CC)cc2)Cc2cn[nH]c2-c2ccc(OC)cc2)cc1 -9.27%
N[C@@H](Cc1cc(I)c(Oc2cc(I)c(O)c(I)c2)c(I)c1)C(=O)O -20.3%
Cc1ccc(S(=O)(=O)N2CCN(Cc3nc4ccc(C)cc4o3)CC2)c(C)c1 -15.6%
Cc1ccccc1OCCn1c(CCNC(=O)C2CCCCC2)nc2ccccc21 -18%
Cc1nc2ccc(S(=O)(=O)NCC(=O)Nc3ccc(F)cc3F)cc2s1 -5.32%
O=C(Nc1ccccc1Cl)N1CCSc2ccccc21 -14.4%
CCOC(=O)Cn1c(=O)n(C2CCCCC2)c2nc(-c3c(F)cccc3Cl)nc(C(N)=O)c21 -27.1%
CC(C)CCn1c(/C=C/c2ccccc2)nc2ccccc21 -23%
Cc1ccc(-c2cn3ccc(C)cc3n2)cc1 -7.6%
Cc1cc(C)cc(NC(=O)CSc2nc3nccnc3c(=O)n2CCc2c[nH]c3ccccc23)c1 2.64%
Cc1ccc(NC(=O)c2cnc3sc(N4CCOCC4)nn3c2=O)cc1N(C)C -8.73%
COc1ccccc1C(=O)Nc1sc(Nc2ccccc2)nc1C(N)=O -14.8%
O=C(c1ccc2c(c1)N(Cc1ccccc1)C(=O)c1ccccc1S2(=O)=O)N1CCN(Cc2ccccc2)CC1 -12.2%
COc1ccc(Nc2nc(C)nc(N)c2S(=O)(=O)c2ccccc2)cc1 -5.06%
COC(=O)c1scc(-c2ccc(C)cc2)c1S(=O)(=O)Nc1cc(C)ccc1OC -6.64%
Cc1cccc(NC(=O)Cn2c(=O)n(CCCCCC(=O)NCc3ccc4c(c3)OCO4)c(=O)c3sccc32)c1 -21.3%
COc1cccc(N2CC(NC(=O)c3cc(Cl)ccc3OC)CC2=O)c1 (stereo not drawn) -24.5%
Cc1ccc(C(=O)N/C(=C\c2ccc(Cl)cc2)C(=O)NC2CCCCC2)cc1 1.88%
COc1ccc(OC)c(NS(=O)(=O)c2ccc(N3CCCCS3(=O)=O)cc2)c1 -16.2%
CCOc1ccc(N2CC(NC(=O)C3CCCC3)CC2=O)cc1 (stereo not drawn) -7.44%
CCCNC(=O)C1CCC(Cn2c(=O)c3sccc3n(CC(=O)NCc3cccc(OC)c3OC)c2=O)CC1 (stereo not drawn) -4.02%
Cc1cc(C)c2c(NC(=O)c3ccccc3)c(C(=O)Nc3ccc(F)cc3)sc2n1 -9.36%
Cc1ccc(C)c(N2CCN(CCCNC(=O)c3ccc4nc(CCc5ccccc5)oc4c3)CC2)c1 -6.34%
COc1ccc(-c2onc(C)c2C)cc1S(=O)(=O)N(C)Cc1ccccc1 -41.7%
Cc1cc(-n2ccnc(NCCc3ccc(S(N)(=O)=O)cc3)c2=O)ccc1Br -12.9%
COc1ccc(NC(=O)c2ccco2)cc1NC(=O)c1cc(OC)c(OC)c(OC)c1 -15.3%
CC(=O)c1cccc(NC(=O)CN(c2cc(C)cc(C)c2)S(=O)(=O)c2c(C)noc2C)c1 -5.52%
COc1ccc(C(=O)c2sc(Nc3ccccc3)nc2N)cc1 -4.49%
N#Cc1c(C(F)(F)F)cc(-c2cccs2)nc1SCC(=O)Nc1cccc(Cl)c1 -18.4%
Cc1ccc(Cl)cc1NC(=O)CCCn1c(=O)c2cccn2c2cccnc21 -13.8%
COc1ccccc1NC(=O)C1=C(C)Nc2c(C(=O)Nc3cccc(C)c3)cnn2C1c1ccccc1Cl (stereo not drawn) -3.24%
COc1ccc(Cl)cc1NC(=O)c1c(NCc2cccnc2)sc2c1CCC(C)C2 (stereo not drawn) -25.4%
CC1CCCCN1CCCNC(=O)CN1C(=O)c2cccnc2Oc2ccccc21 (stereo not drawn) -12.1%
Cc1ccccc1C(=O)N(Cc1sccc1C)C1CCS(=O)(=O)C1 (stereo not drawn) -5.35%
COc1cc(NC(=O)CCn2nc(C)c(S(=O)(=O)N3CCCCC3)c2C)cc(OC)c1OC -12%
COc1ccc(CCNC(=O)c2ccc(Cn3c(=O)c4ccccc4n(CC(=O)C(C)(C)C)c3=O)cc2)cc1OC -17%
COCCCNC(=O)c1ccc(Cn2c(=O)c3ccccc3n(Cc3c(C)cc(C)cc3C)c2=O)cc1 15.8%
COc1ccc(-c2nc3n(n2)C(c2ccc(OC)c(OC)c2)C(C(=O)Nc2cccnc2)=C(C)N3)cc1 (stereo not drawn) -2.32%
CCCCN(CC)C(=O)C1CCCN(c2ncnc3onc(C)c23)C1 (stereo not drawn) -16.4%
CCN1CCN(C(c2ccc(SC)cc2)c2c(O)cc(C)n(CCOC)c2=O)CC1 (stereo not drawn) -30.9%
COc1cc(C(=O)NCC(c2ccc(Cl)cc2)N2CCOCC2)cc(OC)c1OC (stereo not drawn) -5.66%
CCOC(=O)c1c(C)[nH]c(C)c1S(=O)(=O)NCC(=O)NCc1cccc(C)c1 -12.1%
O=c1cc(-c2ccc(F)cc2)nc(SCc2nc(-c3ccc(Cl)cc3)no2)[nH]1 -4.25%
CCOC(=O)c1ccc(CN(Cc2ccc(Br)cc2)S(=O)(=O)c2cccc(Cl)c2C)cc1 -14.3%
CC(=O)c1ccc(NC(=O)CSc2nc(=O)n(Cc3ccncc3)c3c2CCC3)cc1 -7.61%
Cc1ccc(N2CCN(C(=O)c3cn(C)c4ccc(S(=O)(=O)N(C)C)cc4c3=O)CC2C)cc1 (stereo not drawn) 4.56%
O=C(Cn1c(=O)nc(-c2ccccc2)c2ccccc21)NCc1ccccc1Cl -3.68%
CCS(=O)(=O)c1ncc(N(Cc2ccco2)Cc2ccccc2F)c(C(=O)Nc2cccc(Cl)c2)n1 -3.27%
CCOC(=O)CC(NC(=O)Cn1nnc(-c2ccccc2F)n1)c1ccccc1Cl (stereo not drawn) -15.8%
CCc1ccc(C2C(C(=O)Nc3ccccc3C)=C(C)Nc3nc(SCc4cccc(OC)c4)nn32)cc1 (stereo not drawn) -8.85%
O=C(CN1N=C(c2ccc(Cl)cc2)CCC1=O)NCCc1ccccc1 -13.9%
CC(C)(Oc1ccc(Br)cc1)C(=O)Nc1cc(-c2nc3ccccc3[nH]2)ccc1Cl -8.77%
CCOc1ccc(NC(=O)c2oc3ccccc3c2NC(=O)c2ccc(OC)cc2OC)cc1 -6.4%
COc1ccccc1CNC(=O)CN1N=C(c2ccccc2)CCC1=O -1.22%
Cc1ccc(NC(=O)Cn2nc(Cc3ccncc3)c3ccccc3c2=O)c(Cl)c1 4.11%
CCc1c(C)nc2nncn2c1NCc1ccc(Cl)cc1 -2.67%
CNCc1ccccc1 -21.8%
Fc1ccccc1N1CCN(c2nccn3nc(-c4ccc(Br)cc4)cc23)CC1 -9.49%
COc1ccc(CNC(=O)CS(=O)Cc2nc(-c3cccc(C)c3)oc2C)cc1 (stereo not drawn) -8.75%
COc1cc(CNCCSc2nnnn2C)cc(Cl)c1OCc1ccccc1 -4.37%
Cc1nc(SCCOc2ccccc2F)[nH]c(=O)c1Cc1ccccc1 -4.17%
Cc1ccccc1NC(=O)c1oc2c(c1C)-c1nn(Cc3cccc(Cl)c3)cc1CC2 -16.9%
Cc1ccc(S(=O)(=O)NCC2CCC(C(=O)NCCCOC(C)C)CC2)cc1 (stereo not drawn) -22.2%
CCCCNc1nc2ccccc2c2nc(-c3ccccc3)nn12 1.36%
CCCCN(CC)CCNC(=O)c1cc2c(=O)n(CC)c3ccccc3c2s1 5.28%
Oc1ccc(NCc2ccccc2OCc2ccc(Cl)cc2)cc1 -16.6%
CCOC(=O)c1c(NC(=O)C2c3ccccc3Oc3ccccc32)sc(C)c1CC -10.7%
COc1cc(Nc2nc3c(S(=O)(=O)c4ccc(C)c(C)c4)nnn3c3ccsc23)cc(OC)c1 -12.1%
O=C(NCc1ccc(F)cc1)C1(c2cccs2)CCOCC1 -1.9%
Cc1ccc(OCC(=O)Nc2nnc(S(=O)(=O)N3CCCCCC3)s2)cc1 -14.7%
COC(=O)c1ccccc1NC(=O)N1CCC(N2CCN(Cc3ccc(F)cc3)C(=O)C2=O)CC1 -9.98%
CC(C)(C)C1CCc2nc(NC(=O)Cc3ccccc3)sc2C1 (stereo not drawn) -7.92%
CCn1c(=O)cc(OCC(=O)N(C)c2cc(Cl)ccc2C)c2ccccc21 -14.1%
COc1cc(O)c(C(=O)c2ccccc2)cc1S(=O)(=O)O -15.4%
CCCCC(CC)COC(=O)c1ccc(N(C)C)cc1 (stereo not drawn) -16.3%
O=C1CN(C(=O)COc2ccc(Cl)cc2Cl)C(c2ccccc2)c2cc(F)ccc2N1 (stereo not drawn) -6.13%
CN(C)CCNC(=O)c1ccc(-c2nn(C)c(=O)c3ccccc23)cc1 4.06%
CSc1ccc(-c2nc3cccc(C)n3c2Nc2ccc(Cl)cc2)cc1 -2.58%
COc1ccccc1N1C(=O)N(CC(=O)C(C)(C)C)c2ccccc2S1(=O)=O -11.1%
CCOc1ccccc1CNC(=O)CCCn1ccc2cc(S(=O)(=O)N3CCCC3)ccc21 -8.11%
O=C(O)c1ccc(NC(=O)c2cc(S(=O)(=O)N3CCCCC3)c(Cl)cc2Cl)cc1 -14.8%
Cc1cccc(C(=O)NNc2ncnc3c2cnn3-c2ccc(C)cc2C)c1 -16.3%
CC(C)c1ccc(S(=O)(=O)c2cnc(SCC(=O)Nc3ccc4c(c3)OCCO4)[nH]c2=O)cc1 -4.29%
Cc1ccc(Cn2cnc3nc4c(cc3c2=O)CC(C)CC4)cc1 (stereo not drawn) -10.9%
